Measurements: PMC4336329 (PLoS ONE, 2015)
The whole screen tested about 310,000 compounds, of which about 14,000 (4.5%) showed an effect of 50% or more. Effects have a minus sign here. The list shows a part of the results.

molecular target: human ether-à-go-go-related gene (hERG) potassium channel (human, UniProt Q12809); assay: primary screen, population patch clamp on CHO cells stably expressing hERG
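Also: peak tail current of the secondary pulse compared with the same well before compound.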

Sequence of human ether-à-go-go-related gene (hERG) potassium channel (Q12809 whole entry, looked up): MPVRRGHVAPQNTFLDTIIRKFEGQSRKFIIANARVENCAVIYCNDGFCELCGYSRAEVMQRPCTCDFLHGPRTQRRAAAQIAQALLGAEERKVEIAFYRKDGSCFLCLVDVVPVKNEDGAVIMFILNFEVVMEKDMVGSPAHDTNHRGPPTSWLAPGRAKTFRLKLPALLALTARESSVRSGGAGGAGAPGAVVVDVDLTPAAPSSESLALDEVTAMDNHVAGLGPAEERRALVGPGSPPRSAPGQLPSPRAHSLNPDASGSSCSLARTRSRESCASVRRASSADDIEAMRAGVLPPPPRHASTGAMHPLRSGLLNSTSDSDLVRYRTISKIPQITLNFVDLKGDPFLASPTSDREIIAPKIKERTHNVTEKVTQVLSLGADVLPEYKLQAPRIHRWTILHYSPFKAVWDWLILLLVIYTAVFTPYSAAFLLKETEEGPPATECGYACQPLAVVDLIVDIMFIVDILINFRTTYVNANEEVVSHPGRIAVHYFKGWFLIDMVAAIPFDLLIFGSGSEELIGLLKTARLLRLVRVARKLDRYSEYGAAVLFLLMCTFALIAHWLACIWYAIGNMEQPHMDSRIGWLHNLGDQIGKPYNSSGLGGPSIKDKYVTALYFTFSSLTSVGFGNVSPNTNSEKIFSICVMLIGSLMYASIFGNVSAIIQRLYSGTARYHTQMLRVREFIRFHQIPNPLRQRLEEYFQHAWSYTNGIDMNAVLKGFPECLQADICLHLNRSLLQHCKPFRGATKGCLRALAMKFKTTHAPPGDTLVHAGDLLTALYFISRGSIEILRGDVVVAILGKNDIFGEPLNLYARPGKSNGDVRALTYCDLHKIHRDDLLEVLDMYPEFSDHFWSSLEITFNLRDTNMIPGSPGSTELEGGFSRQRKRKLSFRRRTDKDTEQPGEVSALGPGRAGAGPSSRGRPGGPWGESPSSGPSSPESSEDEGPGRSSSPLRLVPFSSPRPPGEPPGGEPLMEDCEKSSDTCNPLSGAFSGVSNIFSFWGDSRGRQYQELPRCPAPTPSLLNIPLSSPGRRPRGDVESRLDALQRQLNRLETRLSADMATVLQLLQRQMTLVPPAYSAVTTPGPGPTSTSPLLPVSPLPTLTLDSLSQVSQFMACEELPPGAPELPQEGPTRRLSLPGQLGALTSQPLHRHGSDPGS

Row | SMILES | hERG current change (%, negative = inhibition) at 10uM [%]
1 | Brc1ccc2c(c1)CN1CCCC1=N2 | -14.2
2 | CSc1ccccc1NC(=O)Cc1ccc(Br)cc1 | -10.2
3 | CC1CC(=O)NN=C1c1cccs1 (stereo not drawn) | 6.17
4 | CCc1ccc(C(C)NC(=O)C2(C)CC2(Br)Br)cc1 (stereo not drawn) | -9.54
5 | COc1ccccc1Nc1ccc(NC(=O)c2cccc([N+](=O)[O-])c2C)cc1 | 14.4
6 | CCCCN1CCc2c([nH]c3c(C)cccc23)C1=O | -7.88
7 | COc1ccc(CCn2c(O)c(/C=N/N3CCCCC3)c(=O)[nH]c2=O)cc1OC | 0.059
8 | COc1ccccc1N1CCN(CC(=O)N2N=CCC2c2ccccc2)CC1 (stereo not drawn) | -16.6
9 | Cc1ccc2c(c1)N(C(=O)CCC(=O)NCC(C)c1ccccc1)CC(C)O2 (stereo not drawn) | -29.1
10 | CCN1C(=Nc2ccc(Cl)cc2)SC/C1=C\C(=O)OC | 7.99
11 | Cc1cccc(N2CCN(C(=O)c3c(-c4ccccc4)noc3C)CC2)c1C | -9.6
12 | COc1cc2c(cc1NC(=O)CSc1ccccc1)oc1ccccc12 | 13.6
13 | COc1ccc(N(CC(O)CN2CCOCC2)S(=O)(=O)c2ccc(C)cc2)cc1 (stereo not drawn) | -45.2
14 | CCc1ccc(OCCOCC(O)CN2CCN(Cc3ccc(Cl)cc3)CC2)cc1.Cl (stereo not drawn) | -73.5
15 | O=C(Nc1cccc(F)c1)C1CCN(S(=O)(=O)c2cnc[nH]2)CC1 | 4.4
16 | Cc1cc(C)cc(NC(=O)COC(=O)CCn2c(C)csc2=O)c1 | -16.2
17 | Cc1nc2cc(NCc3ccc(Cl)cc3)ccc2n1C | -70.6
18 | C=CCC(=O)N1CCCC(C(=O)c2ccc(Cl)cc2)C1 (stereo not drawn) | 7.88
19 | CC(=O)Nc1ccc(Cc2ccncc2)cc1 | 12.1
20 | CCCOc1ccc(N2C(=O)CC(NCc3cccnc3)C2=O)cc1 (stereo not drawn) | -11

Row | SMILES | hERG current change (%, negative = inhibition) at 10uM [%]
21 | CCCC(=O)Nc1c(-c2cccc(C)c2)c(=O)c2ccccc2n1C | 14
22 | CC1CCN(C(=O)c2ccc(SCc3ccccc3F)c([N+](=O)[O-])c2)CC1 | 10.6
23 | CCCN1C2=C(C(=O)CC(C)(C)C2)C(c2ccc(F)cc2)C2=C1c1ccccc1C2=O (stereo not drawn) | -1.38
24 | O=c1ccc(-c2ccc(S(=O)(=O)NCc3cccc(Br)c3)s2)n[nH]1 | -24.8
25 | Cc1noc(C)c1C(=O)OCC(=O)c1ccc[nH]1 | -7.07
26 | CCc1nc2oc3ccccc3c(=O)c2c(=O)n1CCOC | -19.2
27 | O=C(COC(=O)C1(c2ccccc2)CC1)N1CCN(c2ccc(F)cc2)CC1 | -44.3
28 | Cc1ccc(NC(=O)CN(C)CC(=O)Nc2cccc(F)c2)cc1[N+](=O)[O-] | -34.3
29 | Cc1ccc(NC(=O)CSc2nc(=O)n(CCCN3CCOCC3)c3c2CCCC3)c(C)c1 | -36.7
30 | Cc1cc(NC(=O)Nc2ccc(Cl)c(Cl)c2)n(-c2ccccc2)n1 | 13.9
31 | COc1cccc(NC(=O)Cn2c(CCC(=O)O)ccc2-c2ccc(C)cc2)c1 | 14.7
32 | COc1ccc(C(=O)N2CCC(n3c(C)nc4cc(F)ccc43)CC2)cc1OC | -69
33 | C=CCOc1ccccc1CN1CCCN(C)CC1 | 6.51
34 | COc1ccc(/C=C2\SC(=O)N(CCC(=O)Nc3ccc(S(=O)(=O)Nc4nccs4)cc3)C2=O)cc1 | -0.0124
35 | O=C(COC(=O)CCc1nc2ccccc2s1)Nc1ncc(Cl)cc1Cl | 6.7
36 | CSc1nnc(C)c(=O)n1COC(=O)COc1ccc2ccccc2c1 | -7.33
37 | CCSc1ccccc1C(=O)NCc1ccc2c(c1)OCO2 | -24.8
38 | CC(C)CC(O)C1CCN(C(=O)CCc2nnc(-c3ccc4c(c3)OCO4)o2)CC1 (stereo not drawn) | 6.87
39 | Cc1cc(C)cc(C(=O)Oc2coc(CSc3nnc(NC(=O)C4CC4)s3)cc2=O)c1 | 1.6
